# Measurements taken from the supplement of paper PMC8728848.
# Some of the results follow.
# B1: Banana lectin (Musa acuminata) (protein)
# chain: MNGAIKVGAWGGNGGSAFDMGPAYRIISVKIFSGDVVDGVDVTFTYYGKTETRHYGGSGGTPHEIVLQEGEYLVGMAGEVANYHGAVVLGKLGFSTNKKAYGPFGNTGGTPFSLPIAAGKISGFFGRGGKFLDAIGVYLEPLEHHHHHH
# Legend:
# Assay in all cases: glycan array binding signal (z-score within array); higher = stronger binding
# Conditions in all cases: glycan notation: IUPAC condensed, linker removed
# [1] = biological target: Neu5Ac(a2-3)Gal(b1-4)GlcNAc(b1-3)Gal(b1-4)[Fuc(a1-3)]GlcNAc
# Outline: (§1)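 Glycan array data came from 3228 arrays in the Consortium for Functional Glycomics database, and only arrays with an available protein sequence were kept. Glycan names were put into IUPAC-condensed notation, and columns mapping to the same glycan were averaged. The binding signal is a within-array Z-score, averaged across arrays of one protein sequence run at different concentrations or buffers and across linkers. A negative Z-score can be read as non-binding.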
# [2] = biological target: Neu5Ac(a2-3)Gal(b1-4)GlcNAc(b1-3)GalNAc
# Outline: as §1
# [3] = biological target: Neu5Ac(a2-3)Gal(b1-4)GlcNAc(b1-3)[Neu5Ac(a2-3)Gal(b1-4)GlcNAc(b1-6)]GalNAc
# Outline: as §1
# [4] = biological target: Neu5Ac(a2-3)Gal(b1-4)GlcNAc(b1-6)GalNAc
# Outline: as §1
# [5] = biological target: Neu5Ac(a2-3)Gal(b1-4)GlcNAc(b1-6)[Gal(b1-3)]GalNAc
# Outline: as §1
# [6] = biological target: Neu5Ac(a2-3)Gal(b1-4)GlcNAc(b1-6)[Neu5Ac(a2-3)Gal(b1-3)]GalNAc
# Outline: as §1
# [7] = biological target: Neu5Ac(a2-3)Gal(b1-4)GlcNAc6S
# Outline: as §1
# [8] = biological target: Neu5Ac(a2-3)Gal(b1-4)[Fuc(a1-3)]GlcNAc
# Outline: as §1
# [9] = biological target: Neu5Ac(a2-3)Gal(b1-4)[Fuc(a1-3)]GlcNAc(b1-2)Man
# Outline: as §1
# [10] = biological target: Neu5Ac(a2-3)Gal(b1-4)[Fuc(a1-3)]GlcNAc(b1-3)Gal
# Outline: as §1
# [11] = biological target: Neu5Ac(a2-3)Gal(b1-4)[Fuc(a1-3)]GlcNAc(b1-3)Gal(b1-4)GlcNAc
# Outline: as §1
# [12] = biological target: Neu5Ac(a2-3)Gal(b1-4)[Fuc(a1-3)]GlcNAc(b1-3)Gal(b1-4)[Fuc(a1-3)]GlcNAc(b1-3)Gal(b1-4)[Fuc(a1-3)]GlcNAc
# Outline: as §1
# [13] = biological target: Neu5Ac(a2-3)Gal(b1-4)[Fuc(a1-3)]GlcNAc(b1-3)GalNAc
# Outline: as §1
# [14] = biological target: Neu5Ac(a2-3)Gal(b1-4)[Fuc(a1-3)]GlcNAc(b1-6)[Gal(b1-3)]GalNAc
# Outline: as §1
# [15] = biological target: Neu5Ac(a2-3)Gal(b1-4)[Fuc(a1-3)]GlcNAc(b1-6)[Neu5Ac(a2-3)Gal(b1-3)]GalNAc
# Outline: as §1
# [16] = biological target: Neu5Ac(a2-3)Gal(b1-4)[Fuc(a1-3)]GlcNAc6S
# Outline: as §1
# [17] = biological target: Neu5Ac(a2-3)Gal6S(b1-4)GlcNAc
# Outline: as §1
# [18] = biological target: Neu5Ac(a2-3)Gal6S(b1-4)[Fuc(a1-3)]GlcNAc
# Outline: as §1
# Neu5Ac(a2-3)GalNAc = biological target: Neu5Ac(a2-3)GalNAc
# Outline: as §1
# [19] = biological target: Neu5Ac(a2-3)GalNAc(b1-4)GlcNAc
# Outline: as §1
# [20] = biological target: Neu5Ac(a2-3)[GalNAc(b1-4)]Gal(b1-4)Glc
# Outline: as §1
# [21] = biological target: Neu5Ac(a2-3)[GalNAc(b1-4)]Gal(b1-4)GlcNAc
# Outline: as §1
# [22] = biological target: Neu5Ac(a2-3)[GalNAc(b1-4)]Gal(b1-4)GlcNAc(b1-3)GalNAc
# Outline: as §1
# [23] = biological target: Neu5Ac(a2-3)[Neu5Ac(a2-6)]GalNAc
# Outline: as §1
# Neu5Ac(a2-6)Gal = biological target: Neu5Ac(a2-6)Gal
# Outline: as §1
# [24] = biological target: Neu5Ac(a2-6)Gal(b1-3)GlcNAc(b1-3)[Gal(b1-4)GlcNAc(b1-6)]Gal(b1-4)Glc
# Outline: as §1
# Neu5Ac(a2-6)Gal(b1-4)Glc = biological target: Neu5Ac(a2-6)Gal(b1-4)Glc
# Outline: as §1
# [25] = biological target: Neu5Ac(a2-6)Gal(b1-4)GlcNAc
# Outline: as §1
# [26] = biological target: Neu5Ac(a2-6)Gal(b1-4)GlcNAc(b1-2)Man
# Outline: as §1
# [27] = biological target: Neu5Ac(a2-6)Gal(b1-4)GlcNAc(b1-2)Man(a1-3)Man(b1-4)GlcNAc(b1-4)GlcNAc
# Outline: as §1
# [28] = biological target: Neu5Ac(a2-6)Gal(b1-4)GlcNAc(b1-2)Man(a1-3)[Gal(b1-4)GlcNAc(b1-2)Man(a1-6)]Man(b1-4)GlcNAc(b1-4)GlcNAc
# Outline: as §1
# [29] = biological target: Neu5Ac(a2-6)Gal(b1-4)GlcNAc(b1-2)Man(a1-3)[GlcNAc(b1-2)Man(a1-6)]Man(b1-4)GlcNAc(b1-4)GlcNAc
# Outline: as §1
# [30] = biological target: Neu5Ac(a2-6)Gal(b1-4)GlcNAc(b1-2)Man(a1-3)[GlcNAc(b1-4)][Neu5Ac(a2-6)Gal(b1-4)GlcNAc(b1-2)Man(a1-6)]Man(b1-4)GlcNAc(b1-4)GlcNAc
# Outline: as §1
# [31] = biological target: Neu5Ac(a2-6)Gal(b1-4)GlcNAc(b1-2)Man(a1-3)[Man(a1-6)]Man(b1-4)GlcNAc(b1-4)GlcNAc
# Outline: as §1
# [32] = biological target: Neu5Ac(a2-6)Gal(b1-4)GlcNAc(b1-2)Man(a1-3)[Neu5Ac(a2-3)Gal(b1-4)GlcNAc(b1-2)Man(a1-6)]Man(b1-4)GlcNAc(b1-4)GlcNAc
# Outline: as §1
# [33] = biological target: Neu5Ac(a2-6)Gal(b1-4)GlcNAc(b1-2)Man(a1-3)[Neu5Ac(a2-6)Gal(b1-4)GlcNAc(b1-2)Man(a1-6)]Man(b1-4)GlcNAc(b1-4)GlcNAc
# Outline: as §1
# [34] = biological target: Neu5Ac(a2-6)Gal(b1-4)GlcNAc(b1-2)Man(a1-3)[Neu5Ac(a2-6)Gal(b1-4)GlcNAc(b1-2)Man(a1-6)]Man(b1-4)GlcNAc(b1-4)[Fuc(a1-6)]GlcNAc
# Outline: as §1
# [35] = biological target: Neu5Ac(a2-6)Gal(b1-4)GlcNAc(b1-2)Man(a1-6)Man(b1-4)GlcNAc(b1-4)GlcNAc
# Outline: as §1
# [36] = biological target: Neu5Ac(a2-6)Gal(b1-4)GlcNAc(b1-2)Man(a1-6)[Gal(b1-4)GlcNAc(b1-2)Man(a1-3)]Man(b1-4)GlcNAc(b1-4)GlcNAc
# Outline: as §1
# [37] = biological target: Neu5Ac(a2-6)Gal(b1-4)GlcNAc(b1-2)Man(a1-6)[GlcNAc(b1-2)Man(a1-3)]Man(b1-4)GlcNAc(b1-4)GlcNAc
# Outline: as §1
# [38] = biological target: Neu5Ac(a2-6)Gal(b1-4)GlcNAc(b1-2)Man(a1-6)[Man(a1-3)]Man(b1-4)GlcNAc(b1-4)GlcNAc
# Outline: as §1
# [39] = biological target: Neu5Ac(a2-6)Gal(b1-4)GlcNAc(b1-2)[Neu5Ac(a2-6)Gal(b1-4)GlcNAc(b1-4)]Man(a1-3)[GlcNAc(b1-4)][Neu5Ac(a2-6)Gal(b1-4)GlcNAc(b1-2)[Neu5Ac(a2-6)Gal(b1-4)GlcNAc(b1-6)]Man(a1-6)]Man(b1-4)GlcNAc(b1-4)GlcNAc
# Outline: as §1
# [40] = biological target: Neu5Ac(a2-6)Gal(b1-4)GlcNAc(b1-2)[Neu5Ac(a2-6)Gal(b1-4)GlcNAc(b1-4)]Man(a1-3)[GlcNAc(b1-4)][Neu5Ac(a2-6)Gal(b1-4)GlcNAc(b1-4)Man(a1-6)]Man(b1-4)GlcNAc(b1-4)GlcNAc
# Outline: as §1
# [41] = biological target: Neu5Ac(a2-6)Gal(b1-4)GlcNAc(b1-2)[Neu5Ac(a2-6)Gal(b1-4)GlcNAc(b1-6)]Man(a1-6)[Neu5Ac(a2-6)Gal(b1-4)GlcNAc(b1-2)Man(a1-3)][GlcNAc(b1-4)]Man(b1-4)GlcNAc(b1-4)GlcNAc
# Outline: as §1
# [42] = biological target: Neu5Ac(a2-6)Gal(b1-4)GlcNAc(b1-3)Gal(b1-3)GlcNAc
# Outline: as §1
binder,measurement,setting,value
B1,glycan array binding signal (z-score),[1],-0.185
same,glycan array binding signal (z-score),[2],-0.187
same,glycan array binding signal (z-score),[3],-0.212
same,glycan array binding signal (z-score),[4],-0.217
same,glycan array binding signal (z-score),[5],-0.171
same,glycan array binding signal (z-score),[6],-0.131
same,glycan array binding signal (z-score),[7],-0.202
same,glycan array binding signal (z-score),[8],-0.22
same,glycan array binding signal (z-score),[9],-0.209
same,glycan array binding signal (z-score),[10],-0.201
same,glycan array binding signal (z-score),[11],-0.183
same,glycan array binding signal (z-score),[12],-0.265
same,glycan array binding signal (z-score),[13],-0.165
same,glycan array binding signal (z-score),[14],-0.234
same,glycan array binding signal (z-score),[15],-0.189
same,glycan array binding signal (z-score),[16],-0.201
same,glycan array binding signal (z-score),[17],-0.212
same,glycan array binding signal (z-score),[18],-0.205
same,glycan array binding signal (z-score),Neu5Ac(a2-3)GalNAc,-0.199
same,glycan array binding signal (z-score),[19],-0.2
same,glycan array binding signal (z-score),[20],-0.132
same,glycan array binding signal (z-score),[21],-0.169
same,glycan array binding signal (z-score),[22],-0.184
same,glycan array binding signal (z-score),[23],-0.219
same,glycan array binding signal (z-score),Neu5Ac(a2-6)Gal,-0.233
same,glycan array binding signal (z-score),[24],-0.22
same,glycan array binding signal (z-score),Neu5Ac(a2-6)Gal(b1-4)Glc,-0.279
same,glycan array binding signal (z-score),[25],-0.259
same,glycan array binding signal (z-score),[26],-0.201
same,glycan array binding signal (z-score),[27],-0.133
same,glycan array binding signal (z-score),[28],-0.225
same,glycan array binding signal (z-score),[29],0.225
same,glycan array binding signal (z-score),[30],-0.218
same,glycan array binding signal (z-score),[31],0.946
same,glycan array binding signal (z-score),[32],0.33
same,glycan array binding signal (z-score),[33],-0.198
same,glycan array binding signal (z-score),[34],-0.075
same,glycan array binding signal (z-score),[35],-0.19
same,glycan array binding signal (z-score),[36],0.024
same,glycan array binding signal (z-score),[37],0.417
same,glycan array binding signal (z-score),[38],3.56
same,glycan array binding signal (z-score),[39],-0.189
same,glycan array binding signal (z-score),[40],-0.316
same,glycan array binding signal (z-score),[41],-0.204
same,glycan array binding signal (z-score),[42],-0.225
